This note sets out measurements from the antibiotic and cytotoxicity screens of Wong et al. (2023).

SMILES strings stand for the structures. This is one part of the list.

One assay relates to HSkMC. As to the kind of experiment: cytotoxicity call (relative viability < 0.9). The settings on record: 10 µM.
For another assay, the system named is HepG2. As to the kind of experiment: cytotoxicity call (relative viability < 0.9). The settings on record: 10 µM.
A further assay relates to S. aureus RN4220. In words: growth inhibition call (relative growth <= 0.2). The settings on record: 50 µM.

As to `C[C@H](CO)N1C[C@H](C)[C@H](CN(C)C(=O)Nc2cccc3ccccc23)Oc2c(NC(=O)c3ccc(-c4nccs4)cc3)cccc2C1=O`, the cytotoxicity call with HSkMC and in the assay with HepG2 was “inactive” in each case. The growth inhibition call in the assay on S. aureus RN4220 is “inactive”.
Take `COc1ccc(NC(=O)Nc2ccc3c(c2)C(=O)N([C@H](C)CO)C[C@@H](C)[C@H](CN(C)C(=O)Nc2ccccc2)OCCCC[C@@H](C)O3)cc1`: the cytotoxicity call with HSkMC and in the assay on HepG2 was “inactive” in each case. Further, the growth inhibition call with S. aureus RN4220 was “inactive”.
Consider `Cc1noc(C)c1NC(=O)Nc1cccc2c1O[C@H](CN(C)Cc1ccc(Oc3ccccc3)cc1)[C@@H](C)CN([C@H](C)CO)C2=O`, for which the cytotoxicity call with HSkMC and with HepG2 was “inactive” throughout. Moreover, in the assay on S. aureus RN4220, the growth inhibition call was “inactive”.
`COc1ccc(S(=O)(=O)N(C)C[C@H]2Oc3ccc(NS(=O)(=O)c4ccc(F)cc4)cc3C(=O)N([C@H](C)CO)C[C@@H]2C)cc1`: the cytotoxicity call in the assay on HSkMC and with HepG2 was “inactive” each time. In addition, the growth inhibition call with S. aureus RN4220 was “inactive”.
Regarding `C[C@H](O)C#Cc1cnc2c(c1)C(=O)N([C@@H](C)CO)C[C@@H](C)[C@H](CN(C)C(=O)Nc1ccc(C(F)(F)F)cc1)O2`, the cytotoxicity call in the assay with HSkMC and in the assay with HepG2 was “inactive” throughout. In the assay with S. aureus RN4220, the growth inhibition call is “inactive”.
In the case of `C[C@@H]1CCCCO[C@@H](CN(C)C(=O)Cc2ccccc2)[C@@H](C)CN([C@@H](C)CO)C(=O)c2cc(NC(=O)Nc3ccc4c(c3)OCO4)ccc2O1`, the cytotoxicity call in the assay with HSkMC and with HepG2 was “inactive” each time. In the assay on S. aureus RN4220, the growth inhibition call is “inactive”.
In the case of `C[C@@H]1CN([C@@H](C)CO)C(=O)c2cc(NC(=O)CCCN(C)C)ccc2O[C@H]1CN(C)S(=O)(=O)c1cn(C)cn1`, the cytotoxicity call in the assay with HSkMC and in the assay with HepG2 was “inactive” in each case. In addition, in the assay with S. aureus RN4220, the growth inhibition call was “inactive”.
For the molecule `C[C@H](CO)N1C[C@H](C)[C@H](CN(C)S(=O)(=O)c2cn(C)cn2)Oc2ccc(NC(=O)C3CCCCC3)cc2C1=O`, the cytotoxicity call in the assay on HSkMC and in the assay on HepG2 was “inactive” each time. For the same molecule, the growth inhibition call in the assay with S. aureus RN4220 was “inactive”.
On to `COc1ccc(S(=O)(=O)N(C)C[C@H]2OCCCC[C@H](C)Oc3ccc(NC(=O)Nc4cccc5ccccc45)cc3C(=O)N([C@@H](C)CO)C[C@@H]2C)cc1`, for which the cytotoxicity call in the assay with HSkMC and with HepG2 was “inactive” in each case. The growth inhibition call with S. aureus RN4220 was “inactive”.
As for `CN(C)C(=N)NC(=N)N.Cl`, the cytotoxicity call in the assay with HSkMC and in the assay on HepG2 was “inactive” each time. For the same molecule, the growth inhibition call with S. aureus RN4220 is “inactive”.
`C[C@@H]1CN([C@H](C)CO)C(=O)c2cc(C#Cc3cccnc3)cnc2O[C@@H]1CN(C)S(=O)(=O)c1ccccc1F`: the cytotoxicity call in the assay on HSkMC and with HepG2 was “inactive” in each case. Moreover, the growth inhibition call in the assay with S. aureus RN4220 was “inactive”.
Regarding `COc1ccc(NC(=O)Nc2ccc3c(c2)C(=O)N([C@@H](C)CO)C[C@H](C)[C@H](CN(C)C(=O)Nc2ccc(F)cc2)OCCCC[C@@H](C)O3)cc1`, the cytotoxicity call in the assay with HSkMC and with HepG2 was “inactive” throughout. Further, the growth inhibition call in the assay on S. aureus RN4220 is “inactive”.
On to `O=C(CCCCCCC(=O)Nc1ccc([C@H]2C[C@@H](CSc3nc(-c4ccccc4)c(-c4ccccc4)o3)O[C@H](c3ccccc3)O2)cc1)NO`, for which the cytotoxicity call in the assay on HSkMC and in the assay on HepG2 was “inactive” throughout. The growth inhibition call in the assay with S. aureus RN4220 was “inactive”.
On to `C[C@@H]1CN([C@@H](C)CO)C(=O)c2cccc(NC(=O)Nc3ccc(C(F)(F)F)cc3)c2O[C@@H]1CN(C)S(C)(=O)=O`, for which the cytotoxicity call in the assay with HSkMC and in the assay with HepG2 was “inactive” throughout. Moreover, the growth inhibition call with S. aureus RN4220 is “inactive”.
`CC(C)(O)C#Cc1cccc(-c2nc(C(=O)Nc3ccc(-c4ccccc4)cc3)cc3c2[C@@H](CCO)N(S(=O)C(C)(C)C)C3)c1` (some centres undefined): the cytotoxicity call in the assay with HSkMC was “inactive”. Moreover, the cytotoxicity call in the assay with HepG2 is “active”. In addition, the growth inhibition call in the assay with S. aureus RN4220 is “inactive”.
On to `CN(C)/C=N/C(=S)N1CCOCC1`, for which the cytotoxicity call in the assay with HSkMC and in the assay on HepG2 was “inactive” each time. For the same molecule, the growth inhibition call with S. aureus RN4220 is “inactive”.
Turning to `C[C@H]1CCCCO[C@H](CN(C)S(=O)(=O)c2ccc(Cl)cc2)[C@@H](C)CN([C@@H](C)CO)C(=O)c2cc(NC(=O)Cc3ccccc3)ccc2O1`, in the assay on HSkMC, the cytotoxicity call was “inactive”. Further, the cytotoxicity call with HepG2 was “active”. In the assay with S. aureus RN4220, the growth inhibition call is “inactive”.
For the molecule `COc1ccc(NC(=O)N2C[C@@H](O)COC[C@@H]3O[C@H](CC(=O)NC4Cc5ccccc5C4)CC[C@H]32)cc1`, the cytotoxicity call in the assay on HSkMC and with HepG2 was “inactive” throughout. Besides, the growth inhibition call with S. aureus RN4220 was “inactive”.
With `CN(C)C(=O)CN1CCC2(CC1)CN(c1cncnc1)C(=O)CO2`, the cytotoxicity call with HSkMC and in the assay on HepG2 was “inactive” each time. The growth inhibition call in the assay on S. aureus RN4220 was “inactive”.
Take `CC(C)(C)c1nc[nH]c1/C=c1\[nH]c(=O)/c(=C/c2ccccc2)[nH]c1=O`: the cytotoxicity call with HSkMC and in the assay on HepG2 was “inactive” each time. The growth inhibition call in the assay on S. aureus RN4220 is “inactive”.
For `Cc1noc(C)c1NC(=O)Nc1ccc2c(c1)C(=O)N([C@H](C)CO)C[C@H](C)[C@@H](CN(C)CC1CC1)OCCCC[C@H](C)O2`, the cytotoxicity call in the assay on HSkMC and in the assay on HepG2 was “inactive” each time. Moreover, the growth inhibition call with S. aureus RN4220 is “inactive”.
In the case of `COc1ccccc1CNC(=O)C[C@H]1C[C@H]2c3cc(NC(=O)NC4CCCC4)ccc3O[C@H]2[C@H](CO)O1`, the cytotoxicity call with HSkMC and in the assay with HepG2 was “inactive” throughout. In the assay on S. aureus RN4220, the growth inhibition call was “inactive”.
As for `C[C@@H]1CCCCO[C@@H](CN(C)C(=O)Nc2ccccc2)[C@@H](C)CN([C@H](C)CO)C(=O)c2cc(NC(=O)c3ccccc3)ccc2O1`, the cytotoxicity call with HSkMC and in the assay with HepG2 was “inactive” throughout. Besides, the growth inhibition call in the assay with S. aureus RN4220 is “inactive”.
For `CC(=O)OCCc1nc(C(=O)NCc2ccc3c(c2)OCO3)cc2c1[C@@H](CCO)N([S@](=O)C(C)(C)C)C2`, the cytotoxicity call with HSkMC and in the assay on HepG2 was “inactive” in each case. For the same molecule, the growth inhibition call in the assay with S. aureus RN4220 is “inactive”.
In the case of `CC(C)C#Cc1ccc2c(c1)O[C@@H](CN(C)C(=O)Cc1ccccn1)[C@@H](C)CN([C@H](C)CO)S2(=O)=O`, the cytotoxicity call in the assay on HSkMC (human skeletal muscle cells) and in the assay on HepG2 was “inactive” in each case. In the assay on S. aureus RN4220, the growth inhibition call is “inactive”.
Take `CO[C@@H]1CN(C)C(=O)c2cc(NC(=O)C3CC3)ccc2OC[C@H](C)N(C(=O)CN2CCOCC2)C[C@H]1C`: the cytotoxicity call in the assay with HSkMC and in the assay with HepG2 was “inactive” each time. In addition, in the assay with S. aureus RN4220, the growth inhibition call is “inactive”.
For the molecule `CCN1C(=O)C(N=O)N(CC)C1=S` (centres undefined), the cytotoxicity call with HSkMC and in the assay on HepG2 was “inactive” each time. For the same molecule, the growth inhibition call with S. aureus RN4220 was “inactive”.
As to `C[C@H](CO)N1C[C@H](C)[C@H](CN(C)C(=O)NC2CCCCC2)Oc2cc(-c3cccnc3)ccc2S1(=O)=O`, the cytotoxicity call in the assay with HSkMC and in the assay on HepG2 was “inactive” each time. Besides, the growth inhibition call in the assay with S. aureus RN4220 was “inactive”.
